In publication PMC12040169 (PLOS Biology, 2025):
The list shows a part of the results.

test system: T1, C. trachomatis L2/434/Bu expressing GFP (CTL2-GFP); parameters: species or system HeLa; C. trachomatis total inclusion area by high-content imaging, normalised to DMSO; conditions: total inclusion area; 28.5 h, 10 µM; inhibitor
T1 construct: L2/434/Bu GFP intracellular growth in HeLa cells
Outline: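 High-content images of fixed, Hoechst-stained infected cultures supply inclusion area and count (growth) plus nuclei number (viability), complementing bulk GFP/resorufin fluorescence. MIC determination is unchanged from the primary assay.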

Row | Structure (SMILES) | % of control remaining
1 | CCCCNC(=O)CCCN(CC)CCC1=CC2(CCCC2)c2ccccc21 [CBK013232] | 78.1059
2 | C[C@H](NC(=O)N1CCC2(CC1)NCCc1c2[nH]c2ccc(Cl)cc12)c1ccccc1 [CBK047046] | 77.6649
3 | O=C(NCc1csc(-c2ccccc2)n1)c1ccccc1OC(F)F [CBK092332] | 117.545
4 | Cc1cc(C)[n+]2c(n1)N(c1ccccc1)CC2 [CBK017327G] | 89.9554
5 | O=C(Cn1c(NCCO)nc2ccccc21)C12CC3CC(CC(C3)C1)C2 [CBK262129B] | 103.44
6 | CSCCC(=O)N1CCC2(CCN(C(=O)c3cc(F)c(F)cc3F)C2)C1 (stereo not drawn) [CBK131397] | 103.392
7 | O=C(O)c1ccc(OC(=O)C2CCCC2)cc1 [CBK090156] | 6.548
8 | Cc1cccc(NC(=O)CSCc2ccc(Cl)s2)n1 [CBK297895] | 65.7025
9 | COc1ccc(-c2nc(NC(=O)c3ccco3)cnc2-c2cccc(C)c2)cn1 [CBK036954] | 95.582
10 | Cc1cnc(CNC(=O)C2(c3ccccc3)CCCC2)cn1 [CBK149531] | 126.165
11 | Cc1ccc(CCC(=O)N2CCCCC2c2nc3ccccc3[nH]2)o1 (stereo not drawn) [CBK282316] | 65.7311
12 | NS(=O)(=O)c1ccc(NC(=O)c2cccnc2)cc1 [CBK264488] | 112.428
13 | COc1ccc([C@]23CN(C)C[C@H]2CCN(C(=O)c2ccc4c(c2)OC(F)(F)O4)C3)cc1OC [CBK075110T] | 85.5178
14 | Cc1nn(C)c(Cl)c1CN1CCOC(c2ccccc2)C1 (stereo not drawn) [CBK305244] | 108.842
15 | O=C(O)C1Cc2ccccc2C(=O)N1CCc1ccccc1 (stereo not drawn) [CBK286592] | 120.302
16 | Cc1ccc(OCC(=O)Nc2ccc(N3CCN(Cc4ccccc4)CC3)cc2)cc1C [CBK266085] | 103.709
17 | O=C1NCCCNC(=O)C2(C/C=C/CCOc3ccccc31)CCN(C(=O)CN1CCCC1)CC2 [CBK292052] | 118.294
18 | CC(=O)Nc1ccc(/C(C)=N/NC(=O)c2ccc(CN3CCOCC3)cc2)cc1 [CBK262720] | 107.22
19 | CCC1=NN(c2ccccc2)C(=O)C(CC(=O)Nc2ccccc2)c2cc(OC)c(OC)cc21 (stereo not drawn) [CBK260938] | 96.852
20 | O=c1[nH]nc2c(S(=O)(=O)N3CCCCC3)cccn12 [CBK288450] | 66.4378
21 | c1ccc(Sc2cccc3ccccc23)nc1 [CBK085856] | 75.338

Row | Structure (SMILES) | % of control remaining
22 | O=C(COC(=O)c1cc(-c2ccco2)nc2ccccc12)Nc1ccc(F)c(F)c1F [CBK296115] | 57.4291
23 | CCOC(=O)CC(=O)Nc1c(Br)cc(Br)cc1C(=O)O [CBK261412] | 94.0304
24 | O=C(CN1CCN(c2cc(-c3ccc4ccccc4c3)ncn2)CC1)N1CCCC1 [CBK091064] | 139.491
25 | COCCNC(=O)c1cc(C2CN(CCc3ccccc3)CCO2)nc2ccccc12 (stereo not drawn) [CBK285622] | 105.81
26 | Cc1ccc(S(N)(=O)=O)cc1CNC(=O)Nc1cccc(F)c1 [CBK093516] | 98.5779
27 | Cc1cc(C)n(-c2cc(C)c3ccccc3n2)n1 [CBK262358] | 102.558
28 | NC(CSC12CC3CC(CC(C3)C1)C2)C(=O)O (stereo not drawn) [CBK287219] | 88.2848
29 | S=C(NCc1ccc(Cl)c(Cl)c1)Nc1ccncc1 [CBK016649] | 66.139
30 | c1ccc2c(c1)CCCN2Cc1nc2ccccc2[nH]1 [CBK138329] | 106.845
31 | Nc1nc2ccccc2n1CCOc1ccc(Cl)cc1 [CBK087352] | 96.2159
32 | Cc1c(Cl)cccc1NC(=O)C(=O)NCCCN1CCOCC1 [CBK263276] | 83.588
33 | O=C(COc1ccc(S(=O)(=O)N2CCCCC2)cc1)NCc1cccnc1 [CBK268328] | 89.8632
34 | CCOC(=O)CN1CCCN(c2c(F)cc(C#N)cc2F)CC1 [CBK304148] | 71.3736
35 | CCn1c2ccccc2c2cc(NC(=O)CSc3nnc(-c4ccoc4C)o3)ccc21 [CBK269010] | 77.2518
36 | Clc1nsnc1N1CCOCC1 [CBK019133] | 56.3125
37 | CN(C)CCNCCP(=O)(c1ccccc1)c1ccccc1 [CBK263049] | 98.6319
38 | S=C(NCCn1cc(Br)cn1)NCc1ccco1 [CBK266914] | 116.39
39 | O=C(c1ccc(F)cc1)[C@H]1CCCN(C(=O)c2cc[nH]n2)C1 [CBK284331] | 88.1336
40 | COC(=O)c1ccsc1NS(=O)(=O)c1ccc(F)cc1 [CBK039060] | 92.7359
41 | CCOc1cccc(-c2ccc(Nc3cccc(NC(=O)c4ccncc4)c3)nc2)c1 [CBK037739] | 35.9195
42 | O=C(Nc1ccc2ccccc2c1)N1CCN(C(=O)C2CCCO2)CC1 (stereo not drawn) [CBK044043] | 81.6556

Row | Structure (SMILES) | % of control remaining
43 | Cc1c(C(=O)O)sc(S(=O)(=O)N2CCN(C(=O)c3ccc(Cl)cc3)CC2)c1C(=O)O [CBK297123] | 88.3999
44 | O=C(Nc1nc(-c2ccco2)c(-c2ccncc2)s1)C1CC1 [CBK284494] | 110.927
45 | Cc1ccc(C(=O)NC[C@H]2O[C@@H](CC(=O)N3CCCC3)[C@H](O)[C@@H]2O)cc1 [CBK288912] | 75.3462
46 | CC(C)(C)OC(=O)N1CCCC(NC(CO)c2ccco2)CC1 (stereo not drawn) [CBK304049] | 99.5115
47 | O=C(O)c1oc2ccccc2c1CSc1ccccn1 [CBK286981] | 107.979
48 | COc1ccc(C[C@@H]2NC(=O)[C@H]3CN(C(=O)c4cccn4C)CCN3C2=O)cc1 [CBK289616] | 86.2558
49 | CCN(NC(=O)c1ccccc1-n1cccc1)c1ccc(C)cc1 [CBK161507] | 106.134
50 | O=C(O)C1CCN(C(=O)CSc2nnc(-c3ccccc3F)n2C2CCCC2)CC1 [CBK296971] | 86.0152
51 | COc1ccc(S(=O)(=O)N2CCC(C(=O)NCc3cccnc3)CC2)cc1Cl [CBK267613] | 106.699
52 | CCn1ncc2c1CCCC2NC1CCCN(c2cnn(C)c2)C1=O (stereo not drawn) [CBK305316] | 76.821
53 | Cc1ccc(CCC(=O)N(CC(=O)O)C2CCOCC2)c(C)c1 [CBK304509] | 52.0164
54 | Cc1cc(C)n(CC(=O)N[C@H]2CC[C@H]2N)c(=O)n1 [CBK307647] | 102.888
55 | CCn1cnc(S(=O)(=O)N2CCC(OCc3ccccc3)CC2)c1 [CBK305228] | 27.0646
56 | CC1=CCC2C(=O)N(C(CC(C)C)C(=O)O)C(=O)C2C1 (stereo not drawn) [CBK287172] | 120.332
57 | CC(C)(C)S(=O)(=O)CC(N)=S [CBK021304] | 75.6538
58 | Cc1ccc2nc(-c3ccccc3)c(C)c(C(=O)O)c2c1 [CBK270268] | 101.24
59 | Cc1cc2cn([C@@H]3O[C@H](CO)[C@H](O)C3O)c(=O)nc2[nH]1 (stereo partly drawn) [CBK201219] | 83.2907
60 | CSCCN1CCCN(c2nccc(OCc3ccc(Cl)c(Cl)c3)n2)CC1 [CBK083960] | 12.5948
61 | Cc1ccc(-c2ccc(Nc3ccc(Oc4ccccc4)cc3)nc2)cc1C [CBK037740] | 128.049
62 | O=C(CSc1nnc(Cc2cccs2)n1-c1ccccc1)c1c[nH]c2ccccc12 [CBK268290] | 132.902
63 | CCN(CC)C(=O)N1CCC(c2ccncc2)CC1 [CBK283503] | 95.7398

Row | Structure (SMILES) | % of control remaining
64 | COc1cc(Nc2cccc(-c3ccco3)n2)cc(OC)c1OC [CBK037724] | 121.215
65 | CN1Cc2ccccc2OC2(CCCN(C(=O)C3CC3)CC2)C1 (stereo not drawn) [CBK285131] | 71.6764
66 | COc1ccc(C(=O)Nc2nc3c(C)cccc3s2)c(OC)c1 [CBK287301] | 85.3109
67 | O=S(=O)(N1CCCCC1)N1CCN(CC(O)COc2ccc3cc(Br)ccc3c2)CC1 (stereo not drawn) [CBK269032] | 98.9101
68 | CCC(NC(=O)Nc1cc(N2CCOCC2)ccc1Cl)c1nccs1 (stereo not drawn) [CBK306519] | 49.4931
69 | COc1cc(F)ccc1-c1nc(N)cc2cccnc12 [CBK081176] | 85.7422
70 | COc1cc(CNCc2cnn(C)c2)c(O)c(C(C)(C)C)c1 [CBK304721] | 33.7068
71 | c1ccc(N2CCN(Cc3cncn3C3CCCCC3)CC2)nc1 [CBK307345] | 61.6397
72 | CC(=O)Nc1ccc(C(=O)NCc2ccc(S(N)(=O)=O)cc2)cc1 [CBK263642] | 106.276
73 | C=CCn1c(SCC(=O)Nc2cccc(F)c2)nnc1-c1ccccc1O [CBK269620] | 92.4729
74 | COC(=O)c1cccc(CN2CCC3(CC2)NC(=O)Cc2ccccc23)c1 [CBK039807] | 83.7701
75 | Cc1cc(N2CCN(Cc3nc(C(C)(C)C)no3)CC2)nc(C(C)C)n1 [CBK305333] | 21.5222
76 | O=C1NCC(c2ccccc2)C1C(=O)N/N=C\c1cc(O)ccc1[N+](=O)[O-] (stereo not drawn) [CBK262772] | 101.296
77 | Cc1cc(NC(=O)C2CCN(C(=O)CNc3ccccc3)CC2)no1 [CBK304297C] | 116.716
78 | CN(CC(=O)NNC(=O)c1cccnc1)S(=O)(=O)c1cc(Cl)ccc1Cl [CBK267388] | 80.9736
79 | COc1ccc(Br)cc1S(=O)(=O)Nc1c(C(=O)O)[nH]c2ccccc12 [CBK049887] | 87.4926
80 | CC(C)C(=O)NC(C)c1nc(-c2ccncc2)n[nH]1 (stereo not drawn) [CBK104021] | 101.044
81 | O=C(NCCc1c[nH]c2ccc(Cl)cc12)c1ccc(Br)cc1Cl [CBK159762] | 65.1386
